# Measured values published in publication PMC12040169 (PLOS Biology, 2025).
# The list shows a part of the results.
# System: T1, C. trachomatis L2/434/Bu expressing GFP (CTL2-GFP)
# T1 construct: L2/434/Bu GFP intracellular growth in HeLa cells
# Set-up: species or system HeLa; C. trachomatis total inclusion area by high-content imaging, normalised to DMSO
# Settings: total inclusion area; 28.5 h, 10 µM; inhibitor
# Outline: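 Imaging read-out: GFP inclusions and Hoechst nuclei captured by high-content imaging after fixation. Inclusion area/number = chlamydial growth; nuclei count = host cell viability. MIC calculated per earlier method.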
row,Compound,% of control remaining
1,Cn1cc(-c2cncn2CCCOc2ccc(Cl)cc2)cn1 [CBK281784],124.83
2,COc1ccccc1C1=NN(C(=O)CCCC(=O)O)C(c2ccco2)C1 (stereo not drawn) [CBK266642],94.8359
3,CS(=O)(=O)c1ccc(-c2cccc(COC3CCN(C(=O)Cc4ccc(F)cc4F)CC3)c2)cc1 [CBK149506],74.126
4,O=C(/C=C/c1ccco1)Nc1cc2ccccc2cc1NC(=O)/C=C/c1ccco1 [CBK261474],100.731
5,O=C(Cn1c(-c2ccc(F)cc2)cc2cccnc21)N1CCOCC1 [CBK285383],67.0574
6,Cc1nc(C)n(CCNC(=O)C(C)Cc2cccs2)n1 (stereo not drawn) [CBK282067],98.9121
7,Cc1ccc(C(=O)N(C)Cc2cc(-c3ccncc3)no2)c(=O)n1C [CBK307324],49.3508
8,CCN(CC(=O)Nc1ccccc1OC)S(=O)(=O)c1ccccc1 [CBK269428],122.495
9,COc1ccc(NS(=O)(=O)c2ccc(Cl)cc2Cl)c(C(=O)NCc2ccccc2)c1 [CBK113943],78.2436
10,Fc1ccc(OCCCCCN2CCC3(CC2)OCCc2c3[nH]c3ccccc23)cc1 [CBK113516T],0.1153
11,CN(CC(=O)O)c1ccccc1C(=O)O [CBK260996],99.0708
12,COc1cc(C=CC(=O)N(C)c2ccccc2C(=O)O)cc(OC)c1OC [CBK296136],96.2152
13,Cc1cc(C)c2oc(-c3ccc(C)c(NC(=O)COc4ccccc4C)c3)nc2c1 [CBK263067],90.1829
14,CC(C)S(=O)(=O)n1c(=O)n(CC(=O)c2csc3ccccc23)c2ccccc21 [CBK106559],67.3124
15,OCc1nnc2c3ccccc3c(-c3ccccc3)nn12 [CBK269927],77.1289
16,O=C(CSCc1ccc(Cl)cc1Cl)Nc1ccc(Oc2ccc3c(c2)C(=O)NC3=O)cc1 [CBK266779],113.883
17,COc1ccc(CCN2C(=O)c3[nH]nc(-c4cc(C)c(C)cc4O)c3C2c2ccccc2)cc1 (stereo not drawn) [CBK269154],86.129
18,Cc1n[nH]c(C)c1CC(=O)NC(Cc1cccs1)c1ccccn1 (stereo not drawn) [CBK285208],63.0198
19,CCC(Sc1nc(C)cc(C)n1)C(=O)Nc1ccc(NC(C)=O)cc1 (stereo not drawn) [CBK269804],91.407
20,COCCNS(=O)(=O)c1cccc2c1CN(C(=O)c1ccccc1)CC2 [CBK306539],44.5663
21,c1ccc(Oc2cccc(C(N3CCOCC3)N3CCOCC3)c2)cc1 [CBK261798],84.9858
22,CC(C)c1ccc(N2C(=O)SC(c3ccccc3)C2=O)cc1 (stereo not drawn) [CBK113687],85.8205
23,O=C1CNC(=O)C2(C/C=C/C[C@H]3COCC[C@H]3N1)CCN(C(=O)C1CCOCC1)CC2 [CBK292143],113.286
24,CCOc1ccc(CNCc2ccc(C(=O)O)cc2)cc1OC [CBK269590C],85.3126
25,CC(C)CCN(C)C(=O)c1cccc(S(=O)(=O)NCc2ccsc2)c1 [CBK307656],100.665
26,CC(C)c1ccc(/C=C/C(=O)NC(=S)Nc2cccc(C(=O)O)c2)cc1 [CBK265024],131.786

row,Compound,% of control remaining
1,FC(F)(F)c1cccc(CSc2nc3ccccc3nc2N2CCCC2)c1 [CBK107190],89.2501
2,N=C(N)NCCc1c[nH]c2ccccc12 [CBK024011G],2.825
3,O=C(CSc1nc(O)cc(=O)n1-c1ccccc1)c1ccccc1 [CBK261745],89.6116
4,NC(=O)c1ccccc1NC(=O)Cc1ccc2c(c1)CCCC2 [CBK298334],57.9155
5,CC(=O)NCCNC(=O)c1ccc(C)nc1N1CCOCC1 [CBK076453],103.799
6,Cc1cccc(/N=C(\N)Nc2nc(=O)cc(C)[nH]2)c1 [CBK288144],76.4692
7,OC(CNCCc1cccnc1)COc1cccc2c1CCCC2 (stereo not drawn) [CBK002237],96.9465
8,CCCC(=O)Nc1ccccc1NC(=O)c1ccc2c(c1)OCO2 [CBK265841],74.6382
9,O=C(NCCS(=O)(=O)c1ccccc1)c1cnc(-c2ccc(Cl)cc2)c(-c2ccco2)c1 [CBK037546],132.392
10,COc1ccc(CC(=O)N2CCC(Cc3cccc(-c4cccs4)c3)(C(N)=O)CC2)cc1 [CBK285744],110.763
11,N=C1/C(=C/c2ccc(-c3cccc([N+](=O)[O-])c3)o2)C(=O)N=C2SC(SCc3ccccc3)=NN12 [CBK265354],115.104
12,COc1ccc(C(=O)Nc2ccc3[nH]ccc3c2)cc1Cl [CBK159681],86.2866
13,COc1ccccc1N1CCN(c2nccc3sc(S(=O)(=O)NC4CCC4)cc23)CC1 [CBK038248C],114.118
14,Cc1ccc2[nH]c(SCc3nc(-c4cccs4)no3)nc2c1 [CBK269509],67.6802
15,CCCC(=O)Nc1cc(S(=O)(=O)NC)ccc1C [CBK024770],61.7584
16,CNC(=S)N(CCS(=O)(=O)c1ccc(Cl)cc1)Cc1cccs1 [CBK006431],90.9804
17,O=C1Nc2ccc(Br)cc2/C1=C1/SC(=S)N(C(Cc2ccccc2)C(=O)O)C1=O (stereo not drawn) [CBK263521],96.4028
18,COCCOc1nnc(C)c2ccccc12 [CBK019388],83.6361
19,CC(C)CCNC(=O)N1CCN(Cc2ccccc2)CC1 [CBK155657],93.1013
20,COc1cccc(NC(=O)c2cc(-c3ccc(C(=O)N4CCOCC4)cc3)cnc2N)c1 [CBK160203],90.5932
21,CC(=O)N1CCC2(C/C=C/C[C@H]3CN(C(=O)Cc4cccc(F)c4)CC[C@H]3NC(=O)CNC2=O)CC1 [CBK292103],64.5723
22,CCCc1nc(C(=O)NC2CC(=O)N(CCc3ccc(F)cc3)C2)cs1 (stereo not drawn) [CBK306548],83.6569
23,CCOC(=O)c1c(-c2ccc(-c3ccccc3)cc2)csc1NC(=O)c1ccccc1C(=O)O [CBK296096],91.0067
24,Cc1ccc2ccccc2c1CN(/N=N/c1nonc1C)c1nonc1C [CBK262412],99.7355
25,CC(=O)c1cc(C(=O)N2CCC(O)(c3ccccc3C)CC2)cs1 [CBK282532],82.0961
26,CCOC(=O)c1c(NC(=O)c2cc(-c3ccc(C)c(C)c3)nc3ccccc23)sc2c1CCC(C)C2 (stereo not drawn) [CBK262627],90.3902

row,Compound,% of control remaining
1,CCn1cnc2c1CC/C(=N\O)C2 [CBK010044],31.2871
2,CC(=O)N[C@H]1CC[C@]2(C)CCC([C@H](C)C(=O)NC3CCCC3)[C@H](O)[C@H]2[C@@H]1C (stereo partly drawn) [CBK289436],113.285
3,CN(C)c1ccccc1-c1cc(Nc2ccc(C(C)(C)C)cc2)ncn1 [CBK090872],89.1436
4,CC(=O)C1=C(C)N2C(=Nc3ccccc3C2(C)C)S1 [CBK010180C],59.4233
5,CCOc1ccc(NC(=O)c2c[nH]c(=O)n(-c3ccc(F)cc3)c2=O)cc1 [CBK287553],104.252
6,CC(C)(N)C(=O)N1CC(C(=O)NCCN(Cc2ccccc2)S(C)(=O)=O)C(c2ccccc2)C1 (stereo not drawn) [CBK014706T],83.1754
7,CC(C)(C)c1ccc(C(=O)CSCC(=O)Nc2ccc3ccccc3c2)cc1 [CBK268394],94.6254
8,c1csc(-c2cn3ccnc3c(NCC3CC3)n2)c1 [CBK066754],146.943
9,Nc1ncc(-c2ccc(C(F)(F)F)cc2)nc1-c1ccc(C(=O)N2CCOCC2)cc1 [CBK090524],97.7243
10,c1ccc(CNc2cccc(N3CCNCC3)n2)cc1 [CBK003176T],73.579
11,O=C(CN1C(=O)c2ccccc2C1=O)Nc1ccc(S(=O)(=O)N2CCCCCC2)cc1 [CBK266693],92.0589
12,O=C(c1ccc(SCc2cccnc2)c([N+](=O)[O-])c1)N1CCCCC1 [CBK294452],38.9218
13,CCS(=O)(=O)N1CC2C3c4ccccc4C(c4ccccc43)C2C1 (stereo not drawn) [CBK282328],97.0922
14,O=C1NCCN1CCOc1nccnc1/C=C/c1ccccc1 [CBK106879],99.1587
15,CC(O)CN(Cc1ccc(-n2cnc3ccccc32)cc1)Cc1ccc2c(c1)OCO2 (stereo not drawn) [CBK286475],96.2119
16,O=C(O)CCCN1C(=O)/C(=C/c2ccccc2[N+](=O)[O-])SC1=S [CBK262801],115.137
17,CC(C)C(NC(=O)CSc1n[nH]c(=O)n1Cc1ccccc1)c1ccc2c(c1)OCCCO2 (stereo not drawn) [CBK297875],114.691
18,Cc1cc(N2C[C@H](CO)OC2=O)ccc1C#N [CBK017978],68.845
19,N#Cc1ccc(-n2nc(-c3ccccc3)c3ccccc3c2=O)c([N+](=O)[O-])c1 [CBK132567],96.7311
20,C=CCN(Cc1nc(-c2ccccc2)no1)C(=O)Nc1ccc(C)cc1 [CBK269859],78.4189
21,O=C(O)CCC(=O)Nc1cccc(C(=O)Nc2ccc(Br)cc2)c1 [CBK269129],122.215
22,CC(C)CSc1nccnc1N1CCCC1 [CBK103683],86.2365
23,CC(NC(=O)N1CCC2(CC1)NC(=O)Cc1ccccc12)c1cccc2ccccc12 (stereo not drawn) [CBK047280],103.785
24,COc1ccc(C2(CN3CCC(NC(=O)C(C)C)CC3)CC2)cc1 [CBK285374],107.359
25,O=C(Nc1cccc(-c2cn3cccnc3n2)c1)c1cccc([N+](=O)[O-])c1 [CBK268963],118.264
26,CCCc1cnc(N2CCN(S(=O)(=O)c3ccc(NC(C)=O)cc3Cl)CC2)nc1 [CBK086208],87.9358
